The chains are these.
B1: SIX6, O95475 (protein)
chain: MFQLPILNFSPQQVAGVCETLEESGDVERLGRFLWSLPVAPAACEALNKNESVLRARAIVAFHGGNYRELYHILENHKFTKESHAKLQALWLEAHYQEAEKLRGRPLGPVDKYRVRKKFPLPRTIWDGEQKTHCFKERTRHLLREWYLQDPYPNPSKKRELAQATGLTPTQVGNWFKNRRQRDRAAAAKNRLQQQVLSQGSGRALRAEGDGTPEVLGVATSPAASLSSKAATSAISITSSDSECDI
B2: ASCL1, P50553 (protein)
chain: MESSAKMESGGAGQQPQPQPQQPFLPPAACFFATAAAAAAAAAAAAAQSAQQQQQQQQQQQQAPQLRPAADGQPSGGGHKSAPKQVKRQRSSSPELMRCKRRLNFSGFGYSLPQQQPAAVARRNERERNRVKLVNLGFATLREHVPNGAANKKMSKVETLRSAVEYIRALQQLLDEHDAVSAAFQAGVLSPTISPNYSNDLNSMAGSPVSSYSSDEGSYDPLSPEEQELLDFTNWF
B3: ZC3H8, Q8N5P1 (protein)
chain: MDFENLFSKPPNPALGKTATDSDERIDDEIDTEVEETQEEKIKLECEQIPKKFRHSAISPKSSLHRKSRSKDYDVYSDNDICSQESEDNFAKELQQYIQAREMANAAQPEESTKKEGVKDTPQAAKQKNKNLKAGHKNGKQKKMKRKWPGPGNKGSNALLRNSGSQEEDGKPKEKQQHLSQAFINQHTVERKGKQICKYFLERKCIKGDQCKFDHDAEIEKKKEMCKFYVQGYCTRGENCLYLHNEYPCKFYHTGTKCYQGEYCKFSHAPLTPETQELLAKVLDTEKKSCK
B4: DMRT2, Q9Y5R5 (protein)
chain: MADPQAGSAAGDWEIDVESLELEEDVCGAPRSTPPGPSPPPADGDCEDDEDDDGVDEDAEEEGDGEEAGASPGMPGQPEQRGGPQPRPPLAPQASPAGTGPRERCTPAGGGAEPRKLSRTPKCARCRNHGVVSCLKGHKRFCRWRDCQCANCLLVVERQRVMAAQVALRRQQATEDKKGLSGKQNNFERKAVYQRQVRAPSLLAKSILEGYRPIPAETYVGGTFPLPPPVSDRMRKRRAFADKELENIMLEREYKEREMLETSQAAALFLPNRMVPGPDYNSYKSAYSPSPVEPPSKDFCNFLPTCLDLTMQYSGSGNMELISSNVSVATTYRQYPLSSRFLVWPKCGPISDTLLYQQCLLNATTSVQALKPGASWDLKGARVQDGLSAEQDMMPSKLEGSLVLPHTPEIQTTRSDLQGHQAVPERSAFSPPRRNFSPIVDTDSLAAQGHVLTKISKENTRHPLPLRHNPFHSLFQQTLTDKSGPELKTPFVKEAFEETPKKHRECLVKDNQKYTFTIDRCAKDLFVAKQVGTKLSVNEPLSFSVESILKRPSSAITRVSQ
B5: TNFRSF4, P43489 (protein)
chain: MCVGARRLGRGPCAALLLLGLGLSTVTGLHCVGDTYPSNDRCCHECRPGNGMVSRCSRSQNTVCRPCGPGFYNDVVSSKPCKPCTWCNLRSGSERKQLCTATQDTVCRCRAGTQPLDSYKPGVDCAPCPPGHFSPGDNQACKPWTNCTLAGKHTLQPASNSSDAICEDRDPPATQPQETQGPPARPITVQPTEAWPRTSQGPSTRPVEVPGGRAVAAILGLGLVLGLLGPLAILLALYLLRRDQRLPPDAHKPPGGGSFRTPIQEEQADAHSTLAKI
B6: BARX1, Q9HBU1 (protein)
chain: MQRPGEPGAARFGPPEGCADHRPHRYRSFMIEEILTEPPGPKGAAPAAAAAAAGELLKFGVQALLAARPFHSHLAVLKAEQAAVFKFPLAPLGCSGLSSALLAAGPGLPGAAGAPHLPLELQLRGKLEAAGPGEPGTKAKKGRRSRTVFTELQLMGLEKRFEKQKYLSTPDRIDLAESLGLSQLQVKTWYQNRRMKWKKIVLQGGGLESPTKPKGRPKKNSIPTSEQLTEQERAKDAEKPAEVPGEPSDRSRED
B7: CEBPB, P17676 (protein)
chain: MQRLVAWDPACLPLPPPPPAFKSMEVANFYYEADCLAAAYGGKAAPAAPPAARPGPRPPAGELGSIGDHERAIDFSPYLEPLGAPQAPAPATATDTFEAAPPAPAPAPASSGQHHDFLSDLFSDDYGGKNCKKPAEYGYVSLGRLGAAKGALHPGCFAPLHPPPPPPPPPAELKAEPGFEPADCKRKEEAGAPGGGAGMAAGFPYALRAYLGYQAVPSGSSGSLSTSSSSSPPGTPSPADAKAPPTACYAGAAPAPSQVKSKAKKTVDKHSDEYKIRRERNNIAVRKSRDKAKMRNLETQHKVLELTAENERLQKKVEQLSRELSTLRNLFKQLPEPLLASSGHC
B8: GZF1, Q9H116 (protein)
chain: MESGAVLLESKSSPFNLLHEMHELRLLGHLCDVTVSVEYQGVRKDFMAHKAVLAATSKFFKEVFLNEKSVDGTRTNVYLNEVQVADFASFLEFVYTAKVQVEEDRVQRMLEVAEKLKCLDLSETCFQLKKQMLESVLLELQNFSESQEVEVSSGSQVSAAPAPRASVATDGPHPSGLTDSLDYPGERASNGMSSDLPPKKSKDKLDKKKEVVKPPYPKIRRASGRLAGRKVFVEIPKKKYTRRLREQQKTAEGDVGDYRCPQDQSPDRVGTEMEQVSKNEGCQAGAELEELSKKAGPEEEEEEEEEDEEGEKKKSNFKCSICEKAFLYEKSFLKHSKHRHGVATEVVYRCDTCGQTFANRCNLKSHQRHVHSSERHFPCELCGKKFKRKKDVKRHVLQVHEGGGERHRCGQCGKGLSSKTALRLHERTHTGDRPYGCTECGARFSQPSALKTHMRIHTGEKPFVCDECGARFTQNHMLIYHKRCHTGERPFMCETCGKSFASKEYLKHHNRIHTGSKPFKCEVCFRTFAQRNSLYQHIKVHTGERPYCCDQCGKQFTQLNALQRHRRIHTGERPFMCNACGRTFTDKSTLRRHTSIHDKNTPWKSFLVIVDGSPKNDDGHKTEQPDEEYVSSKLSDKLLSFAENGHFHNLAAVQDTVPTMQENSSADTACKADDSVVSQDTLLATTISELSELTPQTDSMPTQLHSLSNME
B9: ZNF83, P51522 (protein)
chain: MHGRKDDAQKQPVKNQLGLNPQSHLPELQLFQAEGKIYKYDHMEKSVNSSSLVSPPQRISSTVKTHISHTYECNFVDSLFTQKEKANIGTEHYKCSERGKAFHQGLHFTIHQIIHTKETQFKCDICGKIFNKKSNLASHQRIHTGEKPYKCNECGKVFHNMSHLAQHRRIHTGEKPYKCNECGKVFNQISHLAQHQRIHTGEKPYKCNECGKVFHQISHLAQHRTIHTGEKPYECNKCGKVFSRNSYLVQHLIIHTGEKPYRCNVCGKVFHHISHLAQHQRIHTGEKPYKCNECGKVFSHKSSLVNHWRIHTGEKPYKCNECGKVFSHKSSLVNHWRIHTGEKPYKCNECGKVFSRNSYLAQHLIIHAGEKPYKCDECDKAFSQNSHLVQHHRIHTGEKPYKCDECGKVFSQNSYLAYHWRIHTGEKAYKCNECGKVFGLNSSLAHHRKIHTGEKPFKCNECGKAFSMRSSLTNHHAIHTGEKHFKCNECGKLFRDNSYLVRHQRFHAGKKSNTCN
B10: GATAD2A, Q86YP4 (protein)
chain: MTEEACRTRSQKRALERDPTEDDVESKKIKMERGLLASDLNTDGDMRVTPEPGAGPTQGLLRATEATAMAMGRGEGLVGDGPVDMRTSHSDMKSERRPPSPDVIVLSDNEQPSSPRVNGLTTVALKETSTEALMKSSPEERERMIKQLKEELRLEEAKLVLLKKLRQSQIQKEATAQKPTGSVGSTVTTPPPLVRGTQNIPAGKPSLQTSSARMPGSVIPPPLVRGGQQASSKLGPQASSQVVMPPLVRGAQQIHSIRQHSSTGPPPLLLAPRASVPSVQIQGQRIIQQGLIRVANVPNTSLLVNIPQPTPASLKGTTATSAQANSTPTSVASVVTSAESPASRQAAAKLALRKQLEKTLLEIPPPKPPAPEMNFLPSAANNEFIYLVGLEEVVQNLLETQGRMSAATVLSREPYMCAQCKTDFTCRWREEKSGAIMCENCMTTNQKKALKVEHTSRLKAAFVKALQQEQEIEQRLLQQGTAPAQAKAEPTAAPHPVLKQVIKPRRKLAFRSGEARDWSNGAVLQASSQLSRGSATTPRGVLHTFSPSPKLQNSASATALVSRTGRHSERTVSAGKGSATSNWKKTPLSTGGTLAFVSPSLAVHKSSSAVDRQREYLLDMIPPRSIPQSATWK
B11: ARID3A, Q99856 (protein)
chain: MKLQAVMETLLQRQQRARQELEARQQLPPDPPAAPPGRARAAPDEDREPESARMQRAQMAALAAMRAAAAGLGHPASPGGSEDGPPGSEEEDAAREGTPGSPGRGREGPGEEHFEDMASDEDMKPKWEEEEMEEDLGEDEEEEEEDYEDEEEEEDEEGLGPPGPASLGTTALFPRKAQPPQAFRGDGVPRVLGGQERPGPGPAHPGGAAHVAPQLQPPDHGDWTYEEQFKQLYELDGDPKRKEFLDDLFSFMQKRGTPVNRIPIMAKQVLDLFMLYVLVTEKGGLVEVINKKLWREITKGLNLPTSITSAAFTLRTQYMKYLYPYECEKRGLSNPNELQAAIDSNRREGRRQSFGGSLFAYSPGGAHGMLSSPKLPVSSLGLAASTNGSSITPAPKIKKEEDSAIPITVPGRLPVSLAGHPVVAAQAAAVQAAAAQAAVAAQAAALEQLREKLESAEPPEKKMALVADEQQRLMQRALQQNFLAMAAQLPMSIRINSQASESRQDSAVNLTGTNGSNSISMSVEINGIMYTGVLFAQPPAPTPTSAPNKGGGGGGGSSSNAGGRGGNTGTSGGQAGPAGLSTPSTSTSNNSLP

The list shows a part of the results. Binding of human transcription factors and regulators to the viral nucleoprotein by AlphaScreen, crude cell-free proteins, amounts not normalised, one pass. Fold of the Venus control; higher = more signal. No active / inactive call. Single-pass screen; sequences are the whole Swiss-Prot entries looked up by name.

This assay deals with nucleoprotein N of Crimean-Congo hemorrhagic fever virus. Nature of the assay: AlphaScreen luminescence signal relative to Venus negative control (fold); higher = stronger binding to CCHFV N. How it is done: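 AlphaScreen binding of cell-free made, FLAG-GST-tagged human transcription factors and regulators (crude translation products) to biotinylated N protein; signal as fold of the FLAG-GST-Venus control. One pass.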
For orientation: Bead proximity is the source of the signal in Alpha formats.
The molecule B1 returned an AlphaScreen luminescence signal of 60.6.

As for B2, the AlphaScreen luminescence signal worked out at 1.77.

B3: the AlphaScreen luminescence signal amounted to 2.47.

Molecule B4 displayed an AlphaScreen luminescence signal of 1.44.

Turning to B5, the AlphaScreen luminescence signal amounted to 1.86.

B6 yielded an AlphaScreen luminescence signal of 3.26.

As for B7, the AlphaScreen luminescence signal turned out to be 1.16.

In turn, B8 had an AlphaScreen luminescence signal of 5.02.

B9 registered an AlphaScreen luminescence signal of 3.3.

For the molecule B10, the AlphaScreen luminescence signal came to 2.09.

Turning to B11, the AlphaScreen luminescence signal worked out at 1.67.
